Assay results as given in the supplement of paper PMC11417369.
± gives the standard deviation of the averaged measurements. Some of the results follow.

These sequences were tested on PfAP2-I AP2 domain 3 (GST-tagged) (assay: gcPBM binding intensity (ln(normalized median fluorescence intensity)); higher = stronger DNA binding).
Method in brief: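 After 1 h on an Agilent 4 × 180k array of primer-extended double-stranded 36-bp intergenic genomic probes and negative controls, bound GST-tagged P. falciparum DNA-binding domains were detected with Alexa488 anti-GST antibody and scanned at 488 nm. The domains had been expressed in E. coli, and binding took place in 1× PBS with 1% milk, 0.2 mg/ml BSA, 0.5% salmon testes DNA and 0.03% Triton X-100. Binding intensity is the highest Masliner-normalised natural-log median intensity across replicate spots of either probe orientation.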

Row | Sequence | gcPBM binding intensity (ln)
1 | TATATATTTCATAATACACACGAAAAAAAAAAAAAA [CACACA_site8972] | 8.16 ± 0.55
2 | ATAAAAATAAAATAAGGTACAGACGAAAAAATTGAA [XGTACX_site5097] | 7.96 ± 0.7
3 | TATATATATAAATACACACACACCGTCCGTGTTAAA [CACACA_site5623] | 8.54 ± 0.53
4 | ATATATATTATATAGTGTACCTATGTATAATAATAT [XGTACX_site1683] | 7.76 ± 0.4
5 | ATATATATATATATATGTACACATATTATAAAAAAA [XGTACX_site8644] | 9.17 ± 0.67
6 | GTATTACATGAGGACACACACAAAAAAAATATATAT [CACACA_site769] | 8.14 ± 0.54
7 | TTATTATAAAAATGTAGTACAATACTTTTTTTTTTT [XGTACX_site732] | 7.54 ± 0.078
8 | TAATTATTTTAAAAAGTGCATTAAAAGATATTAAAT [GTGCAC_site9694] | 11.4 ± 0.56
9 | TATATATCTATAAACACACACCAAAATTTGTGCTTT [CACACA_site7448] | 7.79 ± 0.46
10 | ATATACTTTAAAGGTTAAGAAAGAAAAAAAAAAAAA [CACACA_negctrl_site956] | 8.27 ± 0.88
11 | ATATATATATATTATATGCACACGTTAAAATTTCAT [CACACA_site709] | 9.65 ± 0.16
12 | AAATAAAAAGAAAAGAAAAAGAAAATAAAAAGAGAA [XGTACX_negctrl_site14] | 7.53 ± 0.67
13 | ATAAAATGAACAAACACACACACATATATTTATATA [CACACA_site7181] | 7.65 ± 0.44
14 | GAATAAATAAGATACGTACACACATATACAAAATAT [CACACA_site3660] | 8.04 ± 0.32
15 | AAAAATAAATTTATATATTACAAGAACAAATATAGT [XGTACX_negctrl_site567] | 7.96 ± 0.57
16 | TTTTTTTAAAAAAAGGGTACATATATATATTTTTCT [XGTACX_site1066] | 7.83 ± 0.5
17 | ATAATATAAACGTATACACACAAGAGAAGCATAAAG [CACACA_site2889] | 8.21 ± 0.88
18 | AAAAGGAAAGGAAAGGGTACAATCCTATTATATTAT [XGTACX_site8652] | 7.55 ± 0.75
19 | GTCATATATAATTGTTGTACATTTTTATAATTATGT [XGTACX_site8091] | 7.93 ± 0.44
20 | AATTTTCTTAAAATTTGTACGTATATATTTAATATA [XGTACX_site3906] | 7.78 ± 0.38
21 | AATATAAATGTGATTACACACAACACATTTAAATGT [CACACA_site1212] | 7.71 ± 0.57
22 | AAAAAATTATATTATGCACACATCGTTATATATATA [CACACA_site1201] | 9.85 ± 0.12

Row | Sequence | gcPBM binding intensity (ln)
23 | TATATATACTATAACACACATACACCCAAAAAAAAA [CACACA_site536] | 8.34 ± 0.33
24 | CTTATACATATATATAGTACATATATCATTTTTATG [XGTACX_site4462] | 7.75 ± 0.4
25 | TAAACAGACATATAAACACACATACATACATACATA [CACACA_site7215] | 8 ± 0.68
26 | TTTCATGACAATGTTTGTACATAATAAAATATATTT [XGTACX_site7039] | 7.76 ± 0.33
27 | TTAAAAAGATGTCACTGTACATAAAACATAAAATAT [XGTACX_site2886] | 8.1 ± 0.54
28 | GAAGAGACTTAGAAAACACACATACATAAGATAATT [CACACA_site5333] | 7.58 ± 0.6
29 | AAAAAAAAAAAAAAAACACACATAAAACTATAATAA [CACACA_site7758] | 8.63 ± 0.52
30 | ATATGTATCTCATCGTGTACATGTATATAATATATA [XGTACX_site4139] | 7.89 ± 0.57
31 | TTAGAAAAATTATATATACACACTTATATTTATATA [CACACA_site2821] | 7.28 ± 0.4
32 | ATATATCAAAATAATTGTACAAATTTTATATAATTT [XGTACX_site7249] | 7.64 ± 0.38
33 | ATATAGTAAAGTTATACACACATGAATTTTCCCATG [CACACA_site6923] | 7.68 ± 0.79
34 | TCGTGAATGATTTAAGTACACACCGGTATTTATTCA [CACACA_site1564] | 7.49 ± 0.6
35 | GCATAAACGGATAATTAATTATATTATATTATATCA [CACACA_negctrl_site1519] | 7.49 ± 0.55
36 | TTATCCTTGTAACAATGTACACATTATTTAATACTT [XGTACX_site1830] | 8.04 ± 0.41
37 | TATTGTTGTCTTTACACATGCAACAAAAGAAGAAAA [TGCATGCA_site911] | 7.84 ± 0.42
38 | ATTTATTTATATATATTATTTGTTTTAATTTACTTA [XGTACX_negctrl_site246] | 7.4 ± 0.69
39 | TTTTTTTTTTGATGCACACACCTGAACGAGTTAATA [CACACA_site4329] | 9.64 ± 0.26
40 | CATACAGATGGACACACACACACACCCACAGACAAA [CACACA_site4431] | 8.04 ± 0.28
41 | AACAGGTCATAATTTACACACTATATATCTTATTAT [CACACA_site6461] | 8.13 ± 0.64
42 | TTCATAAGAAGGAACTGTACATATTTTTCATTTTTT [XGTACX_site6770] | 7.52 ± 0.54
43 | TTATATGTATATATATGTATATATATATATATATAG [TGCATGCA_negctrl_site461] | 8.02 ± 0.23
44 | TACAATCTTTCATTATGTACTTAACATTTTTTCTGT [XGTACX_site8752] | 7.89 ± 0.6
